# Test results taken from PubChem BioAssay AID686978 (National Center for Advancing Translational Sciences (NCATS), 2013).
# Several values for one entry are separate records, joined by “and”; a condition that tells them apart may be missing. Identical values can stand only once. Among all 420,000 compounds or so, about 64,000 (15%) were called active. This list was built around the results that the source calls inconclusive (neither active nor inactive); the mix of calls is not that of the screen. Calls come from the whole dose curve; as a rule, active = well fitted inhibition curve with a large enough effect; inconclusive = small, poorly fitted or top-dose-only effect; inactive = flat fitted curve, though single readings scatter. No potency is given beside an inconclusive call; the fits are too rough. A structure can be active in one record and inactive in another.
# Assay: qHTS for Inhibitors of human tyrosyl-DNA phosphodiesterase 1 (TDP1): qHTS in cells in absence of CPT; note: nearly all actives have a fitted effect of over 55% in size
# Settings: DT40 Tdp1-/- hTDP1 cells, no CPT, ATP luminescence, 48 h; activity change, negative = growth inhibition: at 46.2 µM (top of the series) unless noted
# Method in brief: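 Chicken DT40 Tdp1-/- cells complemented with human TDP1, screened without camptothecin (DMSO vehicle only), 400 cells/well. Compounds pin-transferred, cells incubated at 37 °C for at least 48 hr. Growth read as ATP-dependent luminescence (CellTiter-Glo, 30 min at RT).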
# % is set by controls: 0 for no effect and ±100 for the full control effect; potency is the fitted concentration of half-maximal effect; tags give direction and shape of the fitted curve.
Compound,Potency,"activity change, negative = growth inhibition"
CC(Oc1ccc2c3c(c(=O)oc2c1)CCC3)C(=O)NCCCn1ccnc1 (stereo not drawn),inactive,–
N#Cc1c(NC(=O)CSc2ncn[nH]2)sc2c1CCCCC2,inactive,–
c1ccc(CCCNc2ncnc3nc[nH]c23)cc1,active: 20.6 µM,–
O=C(CSc1ncc(-c2ccc(F)cc2)n1Cc1ccco1)Nc1ccc2c(c1)OCO2,"inconclusive [inhibitor, single point]",–
COc1ccc(-c2cc(CNc3nc(NC(C)C)nc4cc(-c5ccccc5)sc34)on2)cc1,active: 3.66 µM,–
O=C(c1cc(-c2ccccn2)nc2ccc(Cl)cc12)N1CCN(CCc2ccccc2)CC1,"inconclusive [inhibitor, single point]",–
CCCCOC(=O)c1c(C)oc2ccc(NS(=O)(=O)c3ccc4c5c(cccc35)C(=O)N4)cc12,active: 18.4 µM,–
CCN1CCN(c2c(S(=O)(=O)c3ccc(C)c(C)c3)cnc3cc(OC)c(OC)cc23)CC1,"inconclusive [inhibitor, single point]",–
Cc1ccc(NC(=O)c2sccc2-n2cccc2)c(Cl)c1,"inconclusive [inhibitor, partial curve]",–
COC(=O)c1cc(Cl)c(N)cc1OC,inactive,–
O=C(c1nsnc1-c1ccccc1O)N1CCCCC1,inactive,–
Cc1cc(C)cc(NC2=CC(c3cccc(F)c3)N(c3cc(C)cc(C)c3)C2=O)c1 (stereo not drawn),"inconclusive [inhibitor, single point]",–
CCOc1ccc(CC(=O)NCCc2sc3nc(-c4ccc(OC)cc4)nn3c2C)cc1,"inconclusive [inhibitor, single point]",–
CCCCCCC[C@@H](C/C=C/CCC(=O)N(C)C/C(=C/Cl)C/C(=C\C(=O)N1CC(OC)=CC1=O)OC)OC,active: 1.84 µM,–
Cc1ccc(C)c(NC(=O)c2cc(S(=O)(=O)N3CCOCC3)cn2C)c1,inactive,–
COc1ccc(NC(=O)c2ccco2)cc1NC(=O)c1cccc(F)c1,"inconclusive [inhibitor, partial curve]",–
FC(F)(F)c1ccc(Cl)c(NC(=S)N/N=C/c2ccccc2Cl)c1,"inconclusive [inhibitor, partial curve, poor fit]",–
O=C(NCc1nnnn1-c1ccc(Cl)cc1)c1ccc(Br)o1,inactive,–
CC(C)=N/N=c1\scc(C)n1Cc1ccco1,"inconclusive [inhibitor, single point]",–
O=C(COC(=O)c1nc(Cl)c(Cl)c(Cl)c1Cl)c1ccc[nH]1,"inconclusive [inhibitor, single point]",–
Cc1ccc(/C=N\NC(=O)CCc2n[nH]c(=O)[nH]c2=O)o1,"inconclusive [inhibitor, single point]",–
Cn1nc(C(F)(F)F)c(C(=O)Nc2cccc(Cl)c2)c1Cl,"inconclusive [inhibitor, partial curve, poor fit]",–
CCCCN(CC)CCCNC(=O)c1cc2c(=O)n(C)c3ccccc3c2n1C,"inconclusive [inhibitor, single point]",–
Cc1ccc(-n2ncc3c(=O)n(CC(=O)N4CCN(C(=O)c5ccco5)CC4)cnc32)cc1,inactive,–
O=c1cc(N2CCc3ccccc3C2)[nH]c(=O)n1-c1ccccc1Cl,"inconclusive [inhibitor, single point]",–

Compound,Potency,"activity change, negative = growth inhibition"
CC1(C)Cc2c(cnn2-c2ccccc2)C(NC(=O)CCCN2CCCCC2=O)C1 (stereo not drawn),inactive,–
Cc1ccc(C(=O)N2CCCC2)c(F)c1F,"inconclusive [inhibitor, single point]",–
CCCCCCCCCCOC(=O)Cn1c(COc2ccccc2OC)[n+](C)c2ccccc21,active: 1.3 µM,–
Cc1cc(Cl)ccc1NC(=S)Nc1cccnc1,inactive,–
Nc1ccc(CCn2ccnc2)cc1,inactive,–
Cc1cc2n(n1)C(c1ccccc1)Nc1ccccc1-2 (stereo not drawn),"inconclusive [inhibitor, single point]",–
COc1ccccc1N1CCN(C(=O)CN(C2CCCCC2)S(C)(=O)=O)CC1,"inconclusive [inhibitor, partial curve]",–
CCOC(=O)N1CCN(CC(O)COC2CC(C)CC(C)(C)C2)CC1 (stereo not drawn),"inconclusive [inhibitor, partial curve]",–
O=C(Nc1ccc(N2CCN(C(=O)c3cccs3)CC2)cc1)c1ccc(Br)o1,"inconclusive [inhibitor, single point]",–
COc1ccc(OC)c(-n2c(-c3ccc(S(C)(=O)=O)cc3)cc(C=O)c2C)c1,inactive,–
CSc1nc(SCC(=O)NCc2ccco2)c2c3c(sc2n1)COC(C)(C)C3,active: 8.2 µM,–
COc1ccc(NC(=O)c2cc(C3CCCCN3C(=O)CCc3ccccc3)on2)c(C)c1 (stereo not drawn),"inconclusive [inhibitor, partial curve, poor fit]",–
COc1cc2c(O)c3c(c(-c4ccc5c(c4)OCO5)c2cc1OC)C(=O)OC3,active: 3.26 µM,–
COc1ccccc1N1CCN(C(=O)CCS(=O)(=O)c2ccc3c(c2)NC(=O)C(C)S3)CC1 (stereo not drawn),"inconclusive [inhibitor, single point]",–
COc1cc2c(cc1NC(=O)c1cccnc1)CCCC2,–,inconclusive: -32.6% [inhibitor]
CC(=O)Nc1cc(NC(C)=O)cc(-c2nc3ccccc3[nH]2)c1,inactive and active: 5.8 µM,–
CCOC(=O)c1cc(S(=O)(=O)N(C)Cc2ccccc2)cn1C,"inconclusive [inhibitor, single point]",–
COc1ccc(C(CNC(=O)COc2ccc(Cl)c(C)c2)N2CCOCC2)cc1 (stereo not drawn),"inconclusive [inhibitor, single point]",–
O=C(CN(Cc1ccccc1Cl)C(=O)c1csnn1)NCc1ccc(F)cc1,"inconclusive [inhibitor, single point]",–
CN1C(=O)C(C)(C)c2cc(S(=O)(=O)N3CCCCCC3)ccc21,–,inconclusive: -30.4% [inhibitor]
CCCCC1(CO)C(=O)N(c2ccccc2)N(c2ccccc2)C1=O,"inconclusive [inhibitor, partial curve, poor fit]",–
Cc1ccc(N2CCN(C(=O)Nc3cccc([N+](=O)[O-])c3)CC2C)cc1 (stereo not drawn),"inconclusive [inhibitor, partial curve]",–
Cc1nc2ccccc2n1CCc1nc2c3ccccc3nc(SCC(=O)NCc3ccco3)n2n1,"inconclusive [inhibitor, single point]",–
CCc1cc2c(C)cc(=O)oc2cc1OC(=O)C1CCCN1C(=O)OC(C)(C)C (stereo not drawn),"inconclusive [inhibitor, partial curve]",–
CCOC(=O)c1cc2c(nc1NC(=S)NCc1ccccc1)CCCC2,inactive,–

Compound,Potency,"activity change, negative = growth inhibition"
C=Cn1cc[n+](CC(=O)C(C)(C)C)c1,inactive,–
CCCCC(Nc1ncnc2ccccc12)C(=O)O (stereo not drawn),inactive,–
Cn1c(CCN2CCCC2)nc2cc(NC(=O)COc3ccc(Cl)cc3)ccc21,active: 16.4 µM,–
CCCCC(=O)NC(=S)Nc1cccc(Cl)c1N1CCCCC1,"inconclusive [inhibitor, single point]",–
CCn1c(O)c(N=NC(=O)c2cccnc2)c2cc(Br)ccc21,active: 23.1 µM,–
COc1ccc(CN(C(=O)c2ccco2)c2ccccc2)cc1,"inconclusive [inhibitor, single point]",–
COc1cc(NC(=O)c2ccc(COCC(F)(F)F)o2)cc(OC)c1OC,"inconclusive [inhibitor, partial curve]",–
CCOC(=O)C1(Cc2cccc(Cl)c2)CCCN(C(=O)c2cccnc2)C1 (stereo not drawn),"inconclusive [inhibitor, single point]",–
Clc1cccc(-c2ccc(CNCc3ccccn3)o2)c1,"inconclusive [inhibitor, single point]",–
Cc1ccc(C(=O)NCc2ccco2)cc1S(=O)(=O)N1CCCC1,inactive,–
CCn1c(C(=O)N2CCC(C(=O)NCCc3ccc(OC)cc3OC)CC2)cc2sccc21,active: 14.6 µM,–
O=C(c1cccnc1)C1CCCN(Cc2nc(Cc3ccccc3F)no2)C1 (stereo not drawn),"inconclusive [inhibitor, single point]",–
O=C(N/N=C/c1coc2ccc(Cl)cc2c1=O)c1cc(O)cc(O)c1,inactive,–
O=C(Nc1nc(OCC(F)(F)F)cnc1/C=C\c1ccccc1)c1ccsc1,"inconclusive [inhibitor, single point]",–
CSc1nc(C(=O)N2CCc3c(cnc(C)c3CNC(=O)c3ccc4c(c3)OCO4)C2)cs1,active: 0.164 µM,–
O=C(OC(C(=O)NCC1CCCO1)c1ccccn1)c1cccs1 (stereo not drawn),inactive,–
COc1cccc2c1Oc1ncccc1N(C(=O)Nc1ccc(F)c(Cl)c1)C2,"inconclusive [inhibitor, single point]",–
CC(OC(=O)c1ccc2c(c1)OCCO2)C(=O)c1ccccc1 (stereo not drawn),inactive,–
CC(C)N(Cc1nc(-c2ccccc2)no1)C(=O)c1ccc([N+](=O)[O-])cc1,active: 5.17 µM,–
CCOC(=O)C(CC)Sc1ccc2nnc(CCNS(=O)(=O)c3ccc(C)cc3)n2n1 (stereo not drawn),"inconclusive [inhibitor, single point]",–
O=C(C/C=N/OCc1ccc(F)cc1Cl)c1cnc(-c2ccccc2)s1,"inconclusive [inhibitor, single point]",–
N#CCC(=O)N/N=C\c1ccc(OC/C=C/c2ccccc2)cc1,inactive,–
COc1ccc(CNC(=O)C2CC(c3ccccc3C(F)(F)F)=NO2)cc1 (stereo not drawn),inactive,–
